From paper PMC4336329 (PLoS ONE, 2015)
Screen size: about 310,000 compounds; about 2,200 (0.71%) showed an effect of 50% or more. Effects have a minus sign here. The list shows a part of the results.

Target: human ether-à-go-go-related gene (hERG) potassium channel (human, UniProt Q12809)
Assay: primary screen, population patch clamp on CHO cells stably expressing hERG

Sequence of human ether-à-go-go-related gene (hERG) potassium channel (Q12809 whole entry, looked up): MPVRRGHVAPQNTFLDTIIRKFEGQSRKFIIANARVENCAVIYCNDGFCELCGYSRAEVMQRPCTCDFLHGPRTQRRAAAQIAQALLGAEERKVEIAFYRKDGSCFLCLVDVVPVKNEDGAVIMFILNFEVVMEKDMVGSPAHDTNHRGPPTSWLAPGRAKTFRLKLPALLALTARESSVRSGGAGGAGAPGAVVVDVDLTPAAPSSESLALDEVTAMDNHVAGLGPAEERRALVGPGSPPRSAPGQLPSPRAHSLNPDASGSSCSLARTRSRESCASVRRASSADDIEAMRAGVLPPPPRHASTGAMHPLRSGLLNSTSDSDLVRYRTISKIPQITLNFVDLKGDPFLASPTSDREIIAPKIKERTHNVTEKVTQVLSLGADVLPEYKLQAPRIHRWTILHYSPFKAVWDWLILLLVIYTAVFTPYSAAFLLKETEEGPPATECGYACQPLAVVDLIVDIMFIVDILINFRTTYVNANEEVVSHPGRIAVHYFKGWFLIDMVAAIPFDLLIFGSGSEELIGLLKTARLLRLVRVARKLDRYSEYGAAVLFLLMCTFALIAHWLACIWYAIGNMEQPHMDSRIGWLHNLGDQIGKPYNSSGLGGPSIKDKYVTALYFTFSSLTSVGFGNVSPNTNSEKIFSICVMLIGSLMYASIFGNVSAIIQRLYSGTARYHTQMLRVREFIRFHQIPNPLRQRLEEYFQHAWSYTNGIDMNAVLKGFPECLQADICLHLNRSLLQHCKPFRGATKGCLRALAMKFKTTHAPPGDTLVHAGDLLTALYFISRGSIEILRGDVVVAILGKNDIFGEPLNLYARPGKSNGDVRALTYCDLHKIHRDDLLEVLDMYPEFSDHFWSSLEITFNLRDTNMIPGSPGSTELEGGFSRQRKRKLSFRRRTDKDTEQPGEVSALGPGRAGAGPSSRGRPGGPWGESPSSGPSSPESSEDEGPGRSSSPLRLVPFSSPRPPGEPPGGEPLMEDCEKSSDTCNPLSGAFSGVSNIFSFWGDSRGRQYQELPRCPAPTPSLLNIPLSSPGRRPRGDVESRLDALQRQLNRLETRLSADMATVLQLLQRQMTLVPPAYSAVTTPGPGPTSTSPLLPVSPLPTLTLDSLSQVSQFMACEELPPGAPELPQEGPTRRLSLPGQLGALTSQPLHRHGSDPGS

| SMILES | hERG current change (%, negative = inhibition) at 1uM [%] |
| --- | --- |
| CC1=CC(C)(C)N(C(=O)CSc2nnc(N)s2)c2cc(C)c(C)cc21 | 2.05 |
| Cc1cccc(NC(=O)CCc2ccccc2)c1C | 18.1 |
| O=c1c2c(-c3cccc([N+](=O)[O-])c3)ccnc2[nH]n1-c1ccccc1 | 10.9 |
| Cc1ccc(NC(=O)CC2SCCNC2=O)cc1[N+](=O)[O-] (stereo not shown) | 14.5 |
| Cc1cccc(NC(=O)CCSc2nc(C)cc(C)n2)c1 | 6.86 |
| Nc1ccc(N=Nc2ccccc2O)c(N)c1 | 9.44 |
| Cc1cccc(CNC(=O)C2CCC(=O)N(C3CCCCCC3)C2)c1 (stereo not shown) | 8.01 |
| CCC(=O)Nc1cccc(-c2nc3ccc(C)cc3o2)c1 | 11.4 |
| Cc1ccc(C)c(NC(=O)C(c2ccccc2)N2CCOCC2)c1 (stereo not shown) | 9.07 |
| N#CCOC(=O)[C@H](Cc1c[nH]c2ccccc12)NS(=O)(=O)c1ccc(Cl)cc1 | 12.2 |
| Cc1cc(C)cc(C(=O)NC(CC(N)=O)c2ccc(N3CCC(Br)CC3)c([N+](=O)[O-])c2)c1 (stereo not shown) | 10.6 |
| Cc1nc2c(ncn2-c2ccccc2)c(=O)n1NC(=O)CN1CCCC1 | 9.44 |
| CSc1cccc(NC(=S)N(Cc2ccccc2)Cc2cccnc2)c1 | 15.5 |
| COCCNC(=O)c1ccc(CN2CCOCC2)cc1 | 10.7 |
| Fc1ccc(C2=CC(c3ccco3)n3nnnc3N2)cc1 (stereo not shown) | 2.25 |
| Cc1ccc(-c2cnn(-c3cccc([N+](=O)[O-])c3)c2N)cc1 | -12.9 |
| COc1ccc(CN2C(=O)NC(C)(c3ccc(C)cc3)C2=O)cc1F (stereo not shown) | 7.12 |
| CC(=O)Nc1c(C)cc(OCC(=O)O)cc1C | 1.1 |
| CCc1ccc(-n2c(CSc3nnnn3-c3ccccc3)nc3ccccc3c2=O)cc1 | 1.25 |
| CC(=O)NC1(C(F)(F)F)NC(=O)N(c2ccc(F)cc2)C1=O (stereo not shown) | 10.6 |
| O=[N+]([O-])c1ccc(CN2CCN(c3ccc(Cl)cc3)CC2)o1 | 4.89 |
| COc1cccc(NC(=O)CSc2nncn2-c2ccccn2)c1 | -3.76 |
| Cc1ccc(-c2nc3ccccc3c(=O)n2-c2cc(C)ccn2)cc1 | -1.72 |
| COc1ccccc1CCNC(=O)CSc1ccc(-c2cccs2)nn1 | 8.97 |
| Cc1ccc2c(c1)N(C(=O)CCC(=O)NCc1cccc(Br)c1)CC(C)O2 (stereo not shown) | -2.96 |
| C=CCn1c(=S)[nH]c2scc(-c3ccc(C)o3)c2c1=O | 13.7 |
| COc1ccccc1CNC(=O)C1CCCN(S(=O)(=O)c2ccc3c(c2)C(C)(C)C(=O)N3C)C1 (stereo not shown) | 3.3 |
| O=C(Nc1cccnc1)c1ccc(Oc2ccccc2)cc1 | 9.53 |

| SMILES | hERG current change (%, negative = inhibition) at 1uM [%] |
| --- | --- |
| CC(=O)Nc1ccc(NC(=O)CCn2c(=O)oc3ccccc32)cc1 | 2.55 |
| Cc1ccc(NCCC(=O)c2ccc(Cl)cc2)cc1 | -0.203 |
| O=C(C1CC(=O)N(C2CCCCC2)C1)N1CCN(c2cccc(C(F)(F)F)c2)CC1 (stereo not shown) | 10.1 |
| Cc1cc(C(=O)OCC(=O)N2CCN(C(=O)c3ccco3)CC2)c(C)n1-c1ccc(F)cc1 | -19.8 |
| CC1(C)Cc2ccccc2C(/C(=N\Nc2cccc(Cl)c2)C(N)=O)=N1 | 4.61 |
| CN(C)CCn1c(N)nc2ccccc21 | 5.99 |
| COc1ccc2nc(/C=N/NC(=O)CCCCCNC(=O)OC(C)(C)C)ccc2c1 | 11.7 |
| O=C(C1CCN(S(=O)(=O)c2ccc(Cl)c(C(F)(F)F)c2)CC1)N1CCC1 | -0.875 |
| CCN(CC(=O)Nc1ccc(Cl)c(C(F)(F)F)c1)CC(=O)NC1CCS(=O)(=O)C1 (stereo not shown) | 6.9 |
| CCOC(=O)C1CCCN(C(=O)CCC(=O)Nc2ccc3nc(N4CCOCC4)cc(C)c3c2)C1 (stereo not shown) | -13 |
| O=C(NNS(=O)(=O)c1ccc(Cl)cc1)c1cnn(-c2ccccc2)c1-n1cccc1 | 7.78 |
| Cc1nn(CC#N)c(=O)n1-c1ccccc1 | 10.4 |
| COc1cc(C(=O)NNC(=O)CN2C(=O)NC(C)(c3ccc(C)cc3)C2=O)cc(OC)c1OC (stereo not shown) | 3.96 |
| Cc1cc(NS(=O)(=O)c2ccc(NC(=O)CSc3nnc(-c4ccco4)n3N)cc2)nc(C)n1 | 6.47 |
| CCCCCCn1c(O)c(C=Nc2c(C)n(C)n(-c3ccccc3)c2=O)c(=O)[nH]c1=O | 1.24 |
| COc1ccc(-c2csc(/C(C#N)=C/Nc3ccc4c(c3)OCCO4)n2)cc1 | 9.07 |
| CCOC(=O)COc1ccc(S(=O)(=O)N2CCN(C(=O)OCC)CC2)cc1 | 6.68 |
| CCN(CC(=O)Nc1c(F)cccc1F)C(=O)/C=C/c1cn(Cc2ccccc2)nc1-c1cccnc1 | 1.08 |
| COc1ccc(C(=O)Oc2cc(C)[nH]c(=O)c2[N+](=O)[O-])cc1 | 6.67 |
| Cc1cccc(NC(=O)C2CCN(S(=O)(=O)c3ccc(Cl)cc3)CC2)n1 | 4.14 |
| O=C1Nc2ccccc2N(O)N1c1cc(-c2ccc(Cl)cc2)[nH]n1 | 7.2 |
| O=C(CNc1ccc2ccccc2c1)N/N=C/c1ccncc1 | 7.41 |
| CC12CCC(=O)N1C(C(=O)Nc1ccc(F)c(Cl)c1)CS2 (stereo not shown) | 3.3 |
| CCOC(=O)c1cnc2c(cnn2C)c1NCCCn1ccnc1 | -10.1 |
| CCN(CC)S(=O)(=O)c1ccc(N2CCCCC2)c(NC(=O)/C=C/c2ccc(OC)c(OC)c2)c1 | 4.81 |
| CCn1c(SCC(=O)NCCc2ccc(OC)c(OC)c2)nc2c1c(=O)n(C)c(=O)n2C | -1.45 |
| O=c1c2[nH]c3ccccc3c2nc2n1CCS2 | 12.8 |
